{
  "source": "paper PMC4336329",
  "about": "(PLoS ONE, 2015)",
  "note": "In all, about 310,000 compounds went through this assay and about 2,200 (0.71%) showed an effect of 50% or more. The effect is printed as a negative number. This is one part of the list.",
  "data": [
    {"biological_target": "human ether-à-go-go-related gene (hERG) potassium channel (human, UniProt Q12809)", "sequence (Q12809 whole entry, looked up)": "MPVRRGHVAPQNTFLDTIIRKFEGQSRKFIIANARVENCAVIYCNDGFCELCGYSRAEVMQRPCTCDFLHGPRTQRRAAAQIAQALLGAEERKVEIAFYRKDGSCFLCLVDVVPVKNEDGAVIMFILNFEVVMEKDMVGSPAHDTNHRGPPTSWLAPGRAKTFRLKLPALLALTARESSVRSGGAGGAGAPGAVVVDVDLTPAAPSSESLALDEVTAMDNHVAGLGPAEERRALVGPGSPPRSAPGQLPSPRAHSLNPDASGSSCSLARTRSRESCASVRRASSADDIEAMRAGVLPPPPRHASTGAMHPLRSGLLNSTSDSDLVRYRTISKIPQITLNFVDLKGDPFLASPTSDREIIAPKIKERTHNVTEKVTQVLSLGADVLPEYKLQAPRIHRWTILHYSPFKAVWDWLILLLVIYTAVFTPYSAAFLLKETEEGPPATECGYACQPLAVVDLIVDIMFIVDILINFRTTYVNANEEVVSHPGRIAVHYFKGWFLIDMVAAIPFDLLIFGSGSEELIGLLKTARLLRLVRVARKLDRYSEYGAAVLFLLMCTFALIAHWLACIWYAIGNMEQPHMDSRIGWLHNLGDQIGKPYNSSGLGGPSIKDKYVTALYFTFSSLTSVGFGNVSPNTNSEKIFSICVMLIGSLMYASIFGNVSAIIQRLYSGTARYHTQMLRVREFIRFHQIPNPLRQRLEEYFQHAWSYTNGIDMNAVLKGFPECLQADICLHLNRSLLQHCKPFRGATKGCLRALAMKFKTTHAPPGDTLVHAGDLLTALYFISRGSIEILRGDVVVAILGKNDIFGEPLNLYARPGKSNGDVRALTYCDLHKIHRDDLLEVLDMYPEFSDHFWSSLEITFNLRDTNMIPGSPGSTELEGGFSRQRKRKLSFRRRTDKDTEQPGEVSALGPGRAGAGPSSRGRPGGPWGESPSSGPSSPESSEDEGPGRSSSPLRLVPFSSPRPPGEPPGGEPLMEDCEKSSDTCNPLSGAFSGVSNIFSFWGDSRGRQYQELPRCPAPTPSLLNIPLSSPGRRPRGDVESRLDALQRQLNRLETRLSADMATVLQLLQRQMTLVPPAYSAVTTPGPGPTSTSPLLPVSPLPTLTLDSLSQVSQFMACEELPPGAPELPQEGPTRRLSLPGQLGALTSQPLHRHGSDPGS", "assay": "primary screen, population patch clamp on CHO cells stably expressing hERG", "units": {"hERG current change (%, negative = inhibition) at 1uM": "%"}, "values": [
      {"smiles": "CC(C)c1ccc(S(=O)(=O)Nc2ccc(O)c(Sc3ncn[nH]3)c2)cc1", "hERG current change (%, negative = inhibition) at 1uM": 1.49},
      {"smiles": "COc1cc(C(=O)NNC(=O)C2CC2)cc(OC)c1OC", "hERG current change (%, negative = inhibition) at 1uM": 15.5},
      {"smiles": "COc1cc(/C=C/C(=O)N2CCc3ccccc3C2)cc(OC)c1OC", "hERG current change (%, negative = inhibition) at 1uM": 12.2},
      {"smiles": "Cc1nc(CNS(=O)(=O)c2ccc(Br)cc2)cs1", "hERG current change (%, negative = inhibition) at 1uM": 19.7},
      {"smiles": "Cc1ccc(OCc2ccc(C(=O)Nc3c(C)nn(Cc4c(F)c(F)c(F)c(F)c4F)c3C)o2)c([N+](=O)[O-])c1", "hERG current change (%, negative = inhibition) at 1uM": -20.1},
      {"smiles": "Cc1ccc(CNC(=O)CCNC(=O)Cn2ccc3ccccc3c2=O)o1", "hERG current change (%, negative = inhibition) at 1uM": 10.7},
      {"smiles": "COc1ccc(N2CCN(C3CCCN(C(=O)c4cccc(C)n4)C3)CC2)cc1", "note": "(stereo not shown)", "hERG current change (%, negative = inhibition) at 1uM": 7.63},
      {"smiles": "CCn1c(NC2CCCCC2)nc2ccccc21", "hERG current change (%, negative = inhibition) at 1uM": 0.512},
      {"smiles": "CC1(C)C(=O)N(CCN2CCC(C(=O)c3ccc(F)cc3)CC2)c2ccccc21.Cl", "hERG current change (%, negative = inhibition) at 1uM": -60.8},
      {"smiles": "COc1ccc(S(=O)(=O)NC2CC3CCC2C3)cc1", "note": "(stereo not shown)", "hERG current change (%, negative = inhibition) at 1uM": 15},
      {"smiles": "O=S(=O)(NCc1ccccc1)c1ccc2ccccc2c1", "hERG current change (%, negative = inhibition) at 1uM": 7.75},
      {"smiles": "CCOc1ccccc1CN1CCC(N2CCOCC2)CC1.O=C(O)C(=O)O", "hERG current change (%, negative = inhibition) at 1uM": 18.2},
      {"smiles": "C1CNCCOCCNCCN1", "hERG current change (%, negative = inhibition) at 1uM": 1.84},
      {"smiles": "O=C(Cc1ccccc1)N1CCNCC1.O=C(O)C(=O)O", "hERG current change (%, negative = inhibition) at 1uM": 6.55},
      {"smiles": "COc1ccc(C(=O)OCCN2CCCCC2)cc1.Cl", "hERG current change (%, negative = inhibition) at 1uM": 9.16},
      {"smiles": "Cc1cccc(C)c1NC(=O)CNC(=O)Cn1nc(C)c(C)c(C#N)c1=O", "hERG current change (%, negative = inhibition) at 1uM": 19.1},
      {"smiles": "O=C(NCCCn1ccnc1)c1cc([N+](=O)[O-])cc([N+](=O)[O-])c1", "hERG current change (%, negative = inhibition) at 1uM": -0.91},
      {"smiles": "COCCN(C(=O)COC(=O)c1cccs1)c1c(N)n(Cc2ccccc2)c(=O)[nH]c1=O", "hERG current change (%, negative = inhibition) at 1uM": 16.2},
      {"smiles": "O=C(Nc1ncn[nH]1)c1c(Cl)ccc(Cl)c1Cl", "hERG current change (%, negative = inhibition) at 1uM": 10.3},
      {"smiles": "COc1ccc(-c2cc(C(=O)NN)[nH]n2)cc1", "hERG current change (%, negative = inhibition) at 1uM": 10.4},
      {"smiles": "COc1ccc(C2=NN(C(=O)c3ccco3)C(c3ccco3)C2)cc1OC", "note": "(stereo not shown)", "hERG current change (%, negative = inhibition) at 1uM": 9.78},
      {"smiles": "Cc1onc(-c2ccccc2)c1C(=O)NCc1cccc(Cl)c1", "hERG current change (%, negative = inhibition) at 1uM": 14},
      {"smiles": "O=C(NCc1ccccc1)C1=C[C@@H](C2CC2)C[C@@H](OCc2ccc(CO)cc2)O1", "hERG current change (%, negative = inhibition) at 1uM": -1.59},
      {"smiles": "CCOc1ccc(-n2cc(C(=O)Nc3cccc(C)n3)c3cc(OC)c(OC)cc3c2=O)cc1", "hERG current change (%, negative = inhibition) at 1uM": 9.29},
      {"smiles": "N#C/C(=C(/O)CN1CCOCC1)c1nc(-c2ccccc2)cs1", "hERG current change (%, negative = inhibition) at 1uM": 14.7},
      {"smiles": "O=C(O)CSc1nc2ccccc2o1", "hERG current change (%, negative = inhibition) at 1uM": 8.6},
      {"smiles": "Cc1cc(NC(=O)CSc2cn(CC(=O)N(C(C)C)C(C)C)c3ccccc23)no1", "hERG current change (%, negative = inhibition) at 1uM": 12.1},
      {"smiles": "Cc1cc(C)c(OCC(=O)OCC(=O)NCc2cccs2)c(C)c1", "hERG current change (%, negative = inhibition) at 1uM": -0.511},
      {"smiles": "O=C(NC(NNc1ccc([N+](=O)[O-])cc1)(C(F)(F)F)C(F)(F)F)c1ccccc1Cl", "hERG current change (%, negative = inhibition) at 1uM": 1.97},
      {"smiles": "CCCCCCOC1(c2ccccc2)OC(=O)c2ccccc21", "note": "(stereo not shown)", "hERG current change (%, negative = inhibition) at 1uM": 17.9},
      {"smiles": "CSc1ccc(C(=O)C2CCCN(S(=O)(=O)N(C)C)C2)cc1", "note": "(stereo not shown)", "hERG current change (%, negative = inhibition) at 1uM": 18.2},
      {"smiles": "CC(C)CC(=O)N=Nc1c(O)[nH]c2ccccc12", "hERG current change (%, negative = inhibition) at 1uM": 12.2},
      {"smiles": "Cc1cc(C)nc(-n2nc(C)cc2NC(=O)CN2CCCC2)n1", "hERG current change (%, negative = inhibition) at 1uM": 0.706},
      {"smiles": "Cc1cccc(Oc2nc(-c3ccccn3)nc3ccccc23)c1", "hERG current change (%, negative = inhibition) at 1uM": 7.6},
      {"smiles": "COc1ccc(NC(=S)Nc2ccccc2F)c(OC)c1", "hERG current change (%, negative = inhibition) at 1uM": 20.5},
      {"smiles": "CN1C(=O)CSC1=NC12CC3CC(CC(C3)C1)C2", "hERG current change (%, negative = inhibition) at 1uM": 5.29},
      {"smiles": "COc1ccc(S(=O)(=O)N2CCOC2CNC(=O)C(=O)NCCc2ccc(S(N)(=O)=O)cc2)cc1", "note": "(stereo not shown)", "hERG current change (%, negative = inhibition) at 1uM": 19.5},
      {"smiles": "CCS(=O)(=O)N1Cc2ccccc2CC1C(=O)Nc1ccc(C)cc1", "note": "(stereo not shown)", "hERG current change (%, negative = inhibition) at 1uM": -2.13},
      {"smiles": "CCCCCCCCN1[C@@H](CC(C)=O)c2cc(C(F)(F)F)ccc2S1(=O)=O", "hERG current change (%, negative = inhibition) at 1uM": 11.8},
      {"smiles": "O=[N+]([O-])c1ccc(CSc2ccc(-c3ccccn3)nn2)cc1", "hERG current change (%, negative = inhibition) at 1uM": -1.44},
      {"smiles": "COc1ccc(NC(=O)Cc2ccc(Cl)cc2Cl)cn1", "hERG current change (%, negative = inhibition) at 1uM": 10.5},
      {"smiles": "Cc1nc(C(=O)N2CCOCC2)sc1C1(C)CC(c2ccccc2)=NO1", "note": "(stereo not shown)", "hERG current change (%, negative = inhibition) at 1uM": 5.57},
      {"smiles": "COc1ccc(-n2c(C)cc(/C=C3\\C(=N)N4N=C(CC(=O)N5CCOCC5)SC4=NC3=O)c2C)cc1", "hERG current change (%, negative = inhibition) at 1uM": 11.8},
      {"smiles": "COC(=O)/C=C1/S/C(=N/NC(=O)c2ccccc2OC)NC1=O", "hERG current change (%, negative = inhibition) at 1uM": 24.1},
      {"smiles": "CSc1nc(N(C)CCO)c2sc3nc(-c4ccco4)c4c(c3c2n1)CCC4", "hERG current change (%, negative = inhibition) at 1uM": 1.97},
      {"smiles": "COc1ccccc1CN(C)CC(=O)Nc1cccc2ccccc12", "hERG current change (%, negative = inhibition) at 1uM": 17.4},
      {"smiles": "O=C(O)CSc1nc2ccccc2n1Cc1ccccc1", "hERG current change (%, negative = inhibition) at 1uM": 7.23},
      {"smiles": "CCn1c(SCc2nc3sc(C(=O)O)c(C)c3c(=O)[nH]2)nc2ccccc21", "hERG current change (%, negative = inhibition) at 1uM": 5.98},
      {"smiles": "CC(=O)c1ccc(OC(=O)CN2C(=O)c3ccccc3C2=O)cc1", "hERG current change (%, negative = inhibition) at 1uM": 14.6},
      {"smiles": "O=C(N/N=C/c1cc(Br)cc(Cl)c1O)c1ccc2c(c1)OCO2", "hERG current change (%, negative = inhibition) at 1uM": 15.2},
      {"smiles": "Cc1ccc([C@@H]2CC=C(C(=O)O)[C@H](c3ccc(Cl)cc3)N2S(=O)(=O)c2ccc(C)cc2)cc1", "hERG current change (%, negative = inhibition) at 1uM": 8.09},
      {"smiles": "O=C(O)c1c(C(=O)O)c(-c2ccc(Cl)c(Cl)c2)n2c1CSC2", "hERG current change (%, negative = inhibition) at 1uM": 17},
      {"smiles": "Cc1ccc(C(=O)Cn2cccn2)cc1", "hERG current change (%, negative = inhibition) at 1uM": 18.4},
      {"smiles": "Cc1cccc(NC(=O)CC2S/C(=N/c3nccs3)N(C)C2=O)c1", "note": "(stereo not shown)", "hERG current change (%, negative = inhibition) at 1uM": 7.91},
      {"smiles": "CCc1cccc2c(C(=O)CCl)c[nH]c12", "hERG current change (%, negative = inhibition) at 1uM": 13.8},
      {"smiles": "CCOc1ccc(C2=CSC3=NCCN23)cc1Cl", "hERG current change (%, negative = inhibition) at 1uM": 10.2},
      {"smiles": "CC(C)(C)C(=O)NCCCc1ccccc1", "hERG current change (%, negative = inhibition) at 1uM": -16.5},
      {"smiles": "N=C1N(/N=C/c2ccccc2)C(=Nc2ccccc2)C(=S)N1c1ccccc1", "hERG current change (%, negative = inhibition) at 1uM": -9.57}
    ]}
  ]
}
